{"source": "patent US9018252B2", "about": "“Stable compositions of dehydroascorbic acid” (priority 2010, dated 2015)", "settings": "human, in vivo, po, 5 min", "data": [{"smiles": "O=C1O[C@H]([C@@H](O)CO)C(O)=C1O", "note": "[AA, ascorbic acid]", "values": [{"measurement": "amount absorbed into the tissues of the mouth and throat", "value": "approximately 13.2%"}]}, {"smiles": "O=C1O[C@H]([C@@H](O)CO)C(=O)C1=O", "note": "[DHAA, dehydroascorbic acid]", "values": [{"measurement": "amount absorbed into the tissues of the mouth and throat", "value": "approximately 14.8%"}]}]}
